# Reference: the supplement of paper PMC3334620
# Over roughly 33,000 sequences, “E-score (-0.5 to 0.5)” has its median near -0.054; the highest 2% begin near 0.39. The list shows a part of the results.
# Target: Ylr278c (UniProt Q05854)
# Experiment: PBM E-score (8-mer binding enrichment) (E-score (-0.5 to 0.5)); higher = stronger / more preferred TF binding; most listed sequences are background and not binding sites
# Conditions: protein concentration: 200 nM; construct: GST-DNA-binding domain
# Method in brief: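 Detection of bound protein used fluorescent anti-GST, with scans normalised by masliner. The proteins were GST-tagged yeast transcription factors applied at about 100-200 nM to universal all-10-mer Agilent arrays made double-stranded by primer extension. Each ungapped eight-base word, pooled with its reverse complement, was scored with an E-score from the Universal PBM Analysis Suite.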
row,Sequence,PBM E-score
1,CGGGAGTC,0.156
2,ATAACAGG,-0.304
3,AAGATGAG,-0.293
4,GAGCTAGC,-0.121
5,CTCGCTAC,-0.183
6,GATAGTGA,-0.0321
7,CCAAGGGG,-0.135
8,GAGCCATA,-0.186
9,AAACCATA,0.044
10,AAGAGCAC,-0.17
11,CCACGCGA,-0.003
12,CGTGTCGC,0.154
13,ACAGTCAG,-0.288
14,ACAATTAA,0.0151
15,CACCAACC,0.00935
16,CACACTGG,-0.243
17,AGAAGCGA,-0.0741
18,CAATCAGA,-0.165
19,AACCTCAA,-0.0886
20,CATATGCG,0.031
21,GGCTCTTA,-0.121
22,GTCCGGTA,0.366
23,ATTTACCG,0.359
24,CGTATTTC,0.0956
25,ATGGATCC,0.168

row,Sequence,PBM E-score
1,GATTCGAC,-0.19
2,ATGGGGTA,0.0221
3,TCGGAAGA,0.362
4,GTACCAAA,-0.0758
5,GGGTTGTA,0.014
6,CGAGGACG,0.151
7,TGCGCGAA,0.0699
8,TCCATCGA,0.00835
9,GGTAGAGA,-0.0783
10,AAATCGCG,0.136
11,CAATACCA,-0.133
12,TCTACTAA,-0.0405
13,ACGGAGCA,0.344
14,ACTTTACT,-0.0787
15,CAACTGGC,-0.0875
16,CCTCCACC,0.0478
17,GAGATCGA,0.0302
18,GCTGACCC,-0.0423
19,ACGATCAA,-0.163
20,GCGGCGAA,0.378
21,TAGTAGAA,-0.0566
22,ATTGTAGA,-0.135
23,GGGCTTAA,-0.0289
24,AGTTATTC,0.044
25,ATACAGTG,-0.246

row,Sequence,PBM E-score
1,ACTTGGTA,-0.12
2,CTGGGGAC,-0.284
3,GGGGTACC,0.076
4,AGTGGTTA,-0.247
5,AGGGTAGG,-0.128
6,CCATACGC,-0.169
7,AAGCCTTA,-0.141
8,GTCGTGCA,-0.292
9,AAAGACTG,-0.306
10,GCCTTGAC,-0.0142
11,AAAAAGGT,-0.0692
12,AAGTAACA,-0.0202
13,CCGCTGAA,0.102
14,CCTGCTCA,-0.145
15,ACTACGAG,-0.128
16,AAGGTCTA,-0.123
17,AATCGCAT,-0.0177
18,ATTGAAGC,0.00174
19,CCAACACA,-0.0865
20,TATTTGAA,-0.12
21,ACTCATAC,-0.106
22,CTTAGACA,-0.316
23,CTAGTAGC,-0.0518
24,CCAGCGGC,0.00708
25,GCCCAGAA,-0.053

row,Sequence,PBM E-score
1,CCTTAGCG,-0.00878
2,GCGCGCAC,0.196
3,CGGTGACG,0.101
4,CTCATCTC,-0.051
5,ATAACTAT,-0.106
6,GGCATGAC,-0.212
7,TACTAATA,0.00135
8,CACTTTTA,0.024
9,AATCCGGA,0.466
10,AATGCGTG,-0.281
11,CGCCTCAA,-0.00933
12,CGTGTGTA,0.0901
13,AACGCGAA,-0.0418
14,GTCGAGTA,-0.0162
15,GTTAGACA,0.00272
16,ACGCCGCC,0.279
17,AGTGAGTA,-0.0314
18,CTTGGCTA,-0.287
19,CCACCCTC,0.0462
20,CCCAGGAA,-0.157
21,ATGCCGAA,0.325
22,GAAGACGA,0.0241
23,ACGTTGCA,-0.125
24,ATTCGAAT,-0.183
25,GACCCCGC,0.247

row,Sequence,PBM E-score
1,ACTATTTG,-0.0506
2,AGTGGACG,0.0113
3,AACCTGTA,-0.229
4,GTAACTAC,-0.0221
5,AAATCTCT,0.00959
6,CGGAGGCA,0.34
7,CGACAGAC,-0.117
8,CGAAGCCA,-0.134
9,AGGTACAA,-0.22
10,ATTCCGAC,0.451
11,AACCACAA,0.0137
12,GCGCCTTA,-0.039
13,AGCAATTA,0.0127
14,AACTGAGG,-0.11
15,GGTGAACA,-0.253
16,AATGACTG,-0.167
17,ACGTTCCA,0.015
18,ACGCAATC,0.077
19,CCTGGACG,-0.156
20,AACTAGGT,0.202
21,CCCCACTC,-0.0243
22,AGCTGGCG,-0.0563
23,ACCTGCTC,-0.0269
24,CATGTAAC,-0.0897
25,TAGAGTGA,-0.0521

row,Sequence,PBM E-score
1,AGACTAAT,-0.0793
2,ACCAGATA,-0.0605
3,CACCAATA,0.0666
4,CGCACGTC,0.139
5,GAGCCGTA,0.075
6,GCAATTCA,0.0454
7,CAAAGGAA,-0.155
8,CATTTGGG,-0.0571
9,AAGTCTAT,-0.222
10,CGCTATTA,0.0466
11,AGGTATCG,0.152
12,CTGGGGTC,-0.0664
13,AAGAGGTA,0.08
14,GACATCTC,0.005
15,CGTTGTAG,0.116
16,AACGCTTA,-0.148
17,TATGCGAA,-0.0768
18,CTTAGGCA,-0.285
19,ACCGTCAC,-0.119
20,ACACATTA,-0.226
21,ACGCATAA,-0.0989
22,AGCCCTGG,-0.298
23,GGCCCTCA,-0.189
24,GCCACTAC,0.0805
25,GGCACGTA,-0.0805

row,Sequence,PBM E-score
1,AGTCGGAG,0.41
2,GCAACGGC,0.11
3,ATACGGGG,0.219
4,CTTTCGAC,-0.124
5,AAACTGGC,-0.0909
6,ATCAGAAC,-0.0482
7,AGGGGGTA,-0.331
8,AGCTGGCA,-0.11
9,CCTTGCGA,-0.0612
10,ATTATACC,0.206
11,ATATTGCA,-0.0264
12,TAGCCAAA,0.0528
13,TGACCCAA,-0.235
14,CTCTAGTC,-0.16
15,GCCTTCAA,-0.141
16,ATATCGCC,0.185
17,AGTGCATG,-0.232
18,AACACACT,-0.175
19,CCTAGCGC,-0.136
20,CAACCGTC,-0.0832
21,ACTTTCAC,-0.0011
22,ACAAAGCT,0.0371
